Reference: PubChem BioAssay AID1347165 (National Center for Advancing Translational Sciences (NCATS), 2019)
The whole screen tested about 220,000 compounds, of which about 5,700 (2.6%) were called active. The inconclusive results got no clear call from the source; some entries with a clear call stand among them for comparison. Calls come from the whole dose curve; as a rule, active = well fitted inhibition curve with a large enough effect; inconclusive = small, poorly fitted or top-dose-only effect; inactive = no such curve, though single readings can be large or run the other way. Potencies beside an inconclusive call are fits to weak or partial responses and may not hold up.

The compounds below were run against Lysine-specific demethylase 5B (Homo sapiens) (UniProt Q9UGL1) (assay: Primary screen for KDM5B Histone Demethylases FDH-coupled qHTS). Conditions: FDH-coupled NADH fluorescence (FDH is formaldehyde dehydrogenase); activity change, negative = inhibition: at 57.7 µM (top of the series) unless noted.
Sequence of UniProt Q9UGL1 (Q9UGL1 whole entry, looked up, the tested form may be a part): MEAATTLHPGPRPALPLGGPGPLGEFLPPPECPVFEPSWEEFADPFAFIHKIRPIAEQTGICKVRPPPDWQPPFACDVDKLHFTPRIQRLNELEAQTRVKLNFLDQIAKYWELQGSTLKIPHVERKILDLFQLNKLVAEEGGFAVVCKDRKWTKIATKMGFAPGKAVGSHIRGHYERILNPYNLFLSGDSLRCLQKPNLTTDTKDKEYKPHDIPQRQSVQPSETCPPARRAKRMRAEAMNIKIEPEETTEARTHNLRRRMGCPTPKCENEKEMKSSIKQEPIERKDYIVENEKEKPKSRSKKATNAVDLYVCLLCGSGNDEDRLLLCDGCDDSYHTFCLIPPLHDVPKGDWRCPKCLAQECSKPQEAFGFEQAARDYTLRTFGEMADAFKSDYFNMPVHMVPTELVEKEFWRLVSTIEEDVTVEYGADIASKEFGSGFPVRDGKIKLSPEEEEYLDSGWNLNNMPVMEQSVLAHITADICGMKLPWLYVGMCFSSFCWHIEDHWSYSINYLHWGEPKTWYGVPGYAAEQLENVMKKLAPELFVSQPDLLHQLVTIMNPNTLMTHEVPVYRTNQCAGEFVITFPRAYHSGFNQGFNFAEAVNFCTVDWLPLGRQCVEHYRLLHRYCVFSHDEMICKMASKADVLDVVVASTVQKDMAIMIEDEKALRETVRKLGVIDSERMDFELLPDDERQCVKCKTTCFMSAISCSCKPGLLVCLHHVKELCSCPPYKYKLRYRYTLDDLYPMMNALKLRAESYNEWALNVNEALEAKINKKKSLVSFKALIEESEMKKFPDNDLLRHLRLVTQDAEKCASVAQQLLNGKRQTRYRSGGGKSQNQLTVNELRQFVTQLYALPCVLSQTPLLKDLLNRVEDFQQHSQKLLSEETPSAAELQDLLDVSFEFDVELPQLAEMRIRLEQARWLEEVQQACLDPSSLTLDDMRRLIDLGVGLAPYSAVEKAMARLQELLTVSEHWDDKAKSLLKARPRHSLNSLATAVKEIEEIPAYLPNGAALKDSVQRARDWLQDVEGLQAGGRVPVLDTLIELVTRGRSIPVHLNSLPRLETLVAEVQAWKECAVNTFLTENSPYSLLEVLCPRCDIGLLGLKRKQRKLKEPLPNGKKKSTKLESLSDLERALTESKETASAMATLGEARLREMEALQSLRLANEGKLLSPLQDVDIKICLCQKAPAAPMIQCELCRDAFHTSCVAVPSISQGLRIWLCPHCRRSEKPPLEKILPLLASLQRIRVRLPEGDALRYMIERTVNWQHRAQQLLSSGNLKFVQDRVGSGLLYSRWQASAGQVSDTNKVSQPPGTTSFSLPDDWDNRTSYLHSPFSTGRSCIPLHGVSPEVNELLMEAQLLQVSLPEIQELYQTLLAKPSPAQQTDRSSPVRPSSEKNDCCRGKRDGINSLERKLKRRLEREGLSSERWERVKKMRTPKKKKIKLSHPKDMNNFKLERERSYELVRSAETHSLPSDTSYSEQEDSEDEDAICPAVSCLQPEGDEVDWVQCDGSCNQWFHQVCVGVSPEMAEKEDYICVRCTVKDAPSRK
In short: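 Inhibition is measured as reduced NADH fluorescence generation from FDH coupling to formaldehyde release. Truncated KDM5BΔAP at 200 nM final acts on H3K4me3 peptide (12.5 µM in substrate mix) in pH 7.5 HEPES buffer with Tween-20, 30 min, room temperature.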
Note: nearly all actives have a fitted effect of over 70% in size.
Potency is the fitted concentration of half-maximal effect; tags give direction and shape of the fitted curve.
Throughout, for activity change, negative = inhibition: 0% is about no effect.

SMILES	activity change, negative = inhibition	Potency
Cc1ncc(-c2ccc(C)c(S(=O)(=O)N3CCN(c4ccc(F)cc4)CC3)c2)o1	inactive: 8.16%	
COc1ccc(Cl)cc1NC(=O)C1CN(S(C)(=O)=O)CC12CCCCC2 (configuration not stated)	inactive: 12.7%	
CC(=O)c1cccc(OC(C)C(=O)C(C#N)C(=O)NC2CC2)c1 (configuration not stated)		inconclusive: 28.2 µM [inhibitor, single point]
N#Cc1ccc2nc([C@H]3CCN(Cc4ccc(F)c(F)c4)C3)[nH]c2c1		inconclusive: 35.5 µM [inhibitor, partial curve]
O=C(NCCc1ccccc1F)NC1CC1	inactive: -7.02%	
c1ccc(-c2noc(-c3cncnc3NCC3CCCCC3)n2)cc1		active: 28.2 µM
c1csc(-c2nc(NC3CCCC3)c3ccccc3n2)c1	inactive: -20.6%	
Cc1ccc(CNC(=O)N2CCCC(CN3CCC(C)CC3)CC2)cc1 (configuration not stated)	inactive: -15.8%	
CCOc1ccc(/C=C(\C#N)C(=O)Nc2sc3c(c2C(=O)OC)C(C(=O)OC)CC3)cc1OC (configuration not stated)		inconclusive: 1.12 µM [inhibitor, full curve, poor fit]
CCCCC(=O)Nc1nnc(S(=O)(=O)N(CC)c2cc(C)cc(C)c2)s1		inconclusive: 25.1 µM [inhibitor, partial curve, poor fit]
CCCCOC(=O)c1ccc(Nc2nc3ccccc3c3nnc(C)n23)cc1		inconclusive: 3.16 µM [inhibitor, partial curve, poor fit]
COc1cc(OC)cc(C(=O)N2CCCC3(C2)Nc2cccnc2NC3=NC2CCCC2)c1 (configuration not stated)		active: 28.2 µM
COc1ccc(CC(=O)N[C@@H]2CN(c3ccccn3)C[C@H]2CN(C)C)cc1OC		inconclusive: 28.2 µM [inhibitor, partial curve, poor fit]
CC(C)N1C[C@@H]2C[C@H]1C(=O)N(Cc1ccc(OC(F)(F)F)cc1)c1ccccc1O2		inconclusive: 35.5 µM [inhibitor, partial curve, poor fit]
COc1ccc(-c2cc(C[C@H]3CNCC[C@H]3CC(=O)Nc3nccs3)no2)cc1		inconclusive: 35.5 µM [inhibitor, partial curve, poor fit]
COc1ccc(-c2cc(=O)n3[nH]c(C)c(-c4ccccc4)c3n2)cc1OC	inactive: -26.9%	
Cc1ccsc1CN1CCCCCCN(C)C(=O)[C@@H]2CCC[C@@H]21		inconclusive: 35.5 µM [inhibitor, partial curve, poor fit]
CC(Oc1cccc(Oc2ccccc2)c1)C(=O)c1ccc(F)c(F)c1 (configuration not stated)	inactive: -3.83%	
CCCn1cc(C(=O)NCC2COc3cc(OC)ccc3C2)c(C)n1 (configuration not stated)	inactive: 3.62%	
COc1ccc2c(c1)c(CN1CCCC(c3[nH]ccc3C(N)=O)C1)cn2C (configuration not stated)		inconclusive: 20 µM [inhibitor, single point]
O=C(Nc1ccc(F)cc1)c1cc2cccnn2n1		inconclusive: 28.2 µM [inhibitor, partial curve]

SMILES	activity change, negative = inhibition	Potency
O=C(CSc1ccccc1)N1CCCC2(C1)Nc1cccnc1NC2=NC1CCCC1 (configuration not stated)		active: 28.2 µM
Cc1ccc2nc(NS(=O)(=O)c3ccc(Cl)cc3)c(Nc3ccc(C(=O)O)cc3)nc2c1		inconclusive: 8.91 µM [inhibitor, partial curve, poor fit]
CCOc1ncccc1NC(=O)N1CCN(c2cnccn2)CC1		inconclusive: 39.8 µM [inhibitor, single point]
C(#Cc1ccc(C#CC[N+]2(Cc3ccccc3)CCCCC2)cc1)C[N+]1(Cc2ccccc2)CCCCC1	inactive: 24.3%	
CCc1ccc(-c2cn3c(n2)sc2cc(C(=O)NCC(C)c4ccccc4)ccc23)cc1 (configuration not stated)		inconclusive: 10 µM [inhibitor, partial curve, poor fit]
Cc1ccc(-c2ccc3nnc(CNC(=O)Cc4ccccc4Cl)n3n2)cc1		inconclusive: 35.5 µM [inhibitor, partial curve, poor fit]
Oc1ccc2c(c1)Oc1ncn3nc(COc4ccccc4)nc3c1C2c1cccnc1 (configuration not stated)	inactive: -4.19%	
CCOC(=O)C1CCN(C(=O)CC(c2ccc(Cl)cc2)c2cn(C)c3ccccc23)CC1 (configuration not stated)		inconclusive: 25.1 µM [inhibitor, single point]
Cc1nc2c(C(=O)NCCc3ccc(Cl)cc3)c[nH]n2c(=O)c1Cc1ccccc1F		inconclusive: 15.8 µM [inhibitor, partial curve, poor fit]
Cc1cccc(-c2nc(C#N)c(NCCc3ccccc3)o2)c1		inconclusive: 1.78 µM [inhibitor, partial curve, poor fit]
Cc1ccc2nc(C)cc(C(=O)NCc3ccco3)c2c1		inconclusive: 31.6 µM [inhibitor, partial curve, poor fit]
COc1ccc(O)c(C(=O)OCc2nc(N)c3ccccc3n2)c1		inconclusive: 28.2 µM [inhibitor, partial curve, poor fit]
CCOC(=O)C1CCN(C(=O)Cn2nc(C)n3c(cc4cc(C)ccc43)c2=O)CC1		inconclusive: 1.12 µM [inhibitor, full curve, poor fit]
Cc1cc(=O)oc2cc(OCCOC(C)C)ccc12		inconclusive: 22.4 µM [inhibitor, partial curve, poor fit]
COCc1nc(C2CCN(C(=O)c3cn(C)cn3)C2)no1 (configuration not stated)		inconclusive: 10 µM [inhibitor, partial curve]
O=C(O)CC[C@@H]1CN(C(=O)c2ccc(CO)o2)CC[C@@H]1N1CCOCC1		inconclusive: 15.8 µM [inhibitor, partial curve]
Cn1c(CN2CCOCC2)nnc1C1CCN(c2ncccc2C#N)CC1		active: 31.6 µM
COCC(=O)N[C@@H]1CN(Cc2cccc(OC)c2OC)C[C@H]1CO	inactive: 2.67%	
COCCn1cc(C(=O)NCc2ccco2)c2c3ccccc3n(C)c2c1=O		inconclusive: 20 µM [inhibitor, partial curve, poor fit]
COc1ccc2c(c1)OCC(CNC(=O)c1cc(-c3ccncc3)n[nH]1)C2 (configuration not stated)	inactive: -12%	
COc1cccc(-c2nc3c([nH]2)CN(C(=O)CCn2cnnn2)CC3)c1		inconclusive: 25.1 µM [inhibitor, partial curve, poor fit]
